In the antibiotic and cytotoxicity screens of Wong et al. (2023):
Some of the results follow.

tested on: S. aureus RN4220; assay: growth inhibition call (relative growth <= 0.2); conditions: 50 µM

Growth inhibition call, inactive:
COc1ccccc1C#Cc1cnc2c(c1)C(=O)N([C@@H](C)CO)C[C@H](C)[C@@H](CN(C)S(=O)(=O)c1cn(C)cn1)O2, Cc1noc(C)c1NC(=O)Nc1ccc2c(c1)C(=O)N([C@H](C)CO)C[C@H](C)[C@@H](CN(C)S(=O)(=O)c1ccc(Cl)cc1)OCCCC[C@@H](C)O2, CSCCC(N)C(=O)O (centres undefined), CC(C)COCC(CN(Cc1ccccc1)c1ccccc1)N1CCCC1.Cl (centres undefined), CCC(=O)OC1(C(=O)SCF)C(C)CC2C3CC(F)C4=CC(=O)C=CC4(C)C3(F)C(O)CC21C (centres undefined), C[C@H](CO)N1C[C@H](C)[C@H](CN(C)S(=O)(=O)c2ccc3ccccc3c2)OCc2cnnn2CCCC1=O, CC(C)NC(=O)N(C)C[C@H]1OCCCC[C@H](C)Oc2ccc(NC(=O)Nc3ccc(C(F)(F)F)cc3)cc2C(=O)N([C@H](C)CO)C[C@H]1C, COc1ccc(S(=O)(=O)Nc2ccc3c(c2)CC(=O)N([C@@H](C)CO)C[C@H](C)[C@@H](CN(C)Cc2ccc(Oc4ccccc4)cc2)O3)cc1, Cc1ccc(S(=O)(=O)N(C)C[C@H]2Oc3ccc(NC(=O)C4CC4)cc3CC(=O)N([C@H](C)CO)C[C@@H]2C)cc1, CN1CCN(C(=O)C[C@H]2CC[C@@H]3[C@H](COC[C@@H](O)CN3Cc3ccc4c(c3)OCO4)O2)CC1, C[C@@H]1CN([C@H](C)CO)C(=O)Cc2cc(NC(=O)CCCCCC(=O)Nc3ccccc3N)ccc2O[C@H]1CN(C)C(=O)Nc1ccc(C(F)(F)F)cc1, Nn1c(Cn2ccnc2)nnc1Cn1ccnc1, C=C1c2cccc(O)c2C(=O)[C@@H]2C(=O)[C@]3(O)C(=O)[C@@H](C(N)=O)C(=O)[C@@H](N(C)C)[C@@H]3[C@@H](O)[C@H]12, O=C(CN1CCNCC1)N1CCCC1, Cc1noc(C)c1S(=O)(=O)N(C)C[C@H]1Oc2ccc(NS(=O)(=O)c3cccs3)cc2CC(=O)N([C@@H](C)CO)C[C@@H]1C, Cn1cc(C[C@@H](N)C(=O)O)c2ccccc21, CNC(=S)NCc1ccco1, C=CCOC(=O)[C@@H]1[C@H]2C(=O)O[C@H](c3ccccc3)[C@H](c3ccccc3)N2[C@H](c2ccc(OCCOC(=O)[C@H]3C[C@H]4C(=O)N[C@@H](CC(C)C)C(=O)N4[C@H]3c3ccc(O)cc3)cc2)[C@@]12C(=O)Nc1ccc(I)cc12, C[C@H]1CN([C@@H](C)CO)C(=O)c2cc(NS(=O)(=O)c3cn(C)cn3)ccc2O[C@H]1CN(C)S(C)(=O)=O, Cc1ccc(S(=O)(=O)Nc2ccc3c(c2)C(=O)N([C@@H](C)CO)C[C@H](C)[C@H](CN(C)Cc2ccncc2)OCCCC[C@@H](C)O3)cc1, C[C@H]1CCCCO[C@H](CN(C)C(=O)NC2CCCCC2)[C@@H](C)CN([C@@H](C)CO)C(=O)c2cc(NC(=O)CCC(F)(F)F)ccc2O1, COc1ccc(CN(C)C[C@H]2OCCCC[C@@H](C)Oc3ccc(NC(=O)CCC(F)(F)F)cc3C(=O)N([C@H](C)CO)C[C@@H]2C)cc1, COC(=O)C1=CO[C@@H](O[C@@H]2O[C@H](CO)[C@@H](O)[C@H](O)[C@H]2O)[C@@H]2[C@@H](C)[C@@H](OC(=O)/C=C/c3ccc(O)cc3)[C@@H](O)[C@H]12, C[C@H](CO)N1C[C@H](C)[C@H](CN(C)C(=O)c2ccc(F)cc2)OCc2ccccc2-c2c(n(C)c3ccccc23)C1=O, COCC#Cc1ccc2c(c1)O[C@H](CN(C)C(=O)C1CCOCC1)[C@H](C)CN([C@@H](C)CO)S2(=O)=O, C[C@@H]1CCCCO[C@H](CN(C)Cc2ccccc2)[C@@H](C)CN([C@H](C)CO)C(=O)c2cc(NC(=O)Nc3ccc(F)cc3)ccc2O1, C[C@@H]1CCCCO[C@@H](CN(C)C(=O)Nc2ccc3c(c2)OCO3)[C@H](C)CN([C@@H](C)CO)C(=O)c2cc(NS(=O)(=O)c3ccc(Cl)cc3)ccc2O1, C[C@@H]1CN([C@H](C)CO)S(=O)(=O)c2ccc(-c3ccc(C#N)cc3)cc2O[C@H]1CN(C)C(=O)CN(C)C, C[C@H]1CN([C@@H](C)CO)C(=O)Cc2cc(NC(=O)C3CC3)ccc2O[C@H]1CN(C)Cc1ccc(Oc2ccccc2)cc1, C[C@H](CO)N1C[C@H](C)[C@H](CN(C)S(=O)(=O)c2cn(C)cn2)Oc2ncc(Br)cc2C1=O, C[C@@H]1CN([C@H](C)CO)C(=O)c2cc(NC(=O)Nc3ccc(C(F)(F)F)cc3)ccc2O[C@H]1CN(C)C(=O)Nc1ccccc1, C[C@@H]1CCCCO[C@@H](CN(C)C(=O)Nc2ccc3c(c2)OCO3)[C@@H](C)CN([C@@H](C)CO)C(=O)c2cc(NC(=O)Nc3cccc4ccccc34)ccc2O1, C[C@@H]1CCCCO[C@@H](CN(C)C(=O)c2ccccc2)[C@@H](C)CN([C@@H](C)CO)C(=O)c2cc(NC(=O)CCC(F)(F)F)ccc2O1, CCN(CC)c1ccc(N2CC=C[C@@]34O[C@@H]5/C=C\CC[C@H](C)OC(=O)[C@@H]5[C@H]3C(=O)N(CCO)[C@@H]4C2=O)cc1, OCCc1ccccc1, C[C@@H]1CN([C@@H](C)CO)S(=O)(=O)c2ccc(-c3cncnc3)cc2O[C@H]1CN(C)C(=O)CN(C)C, C[C@@H]1CCCCO[C@@H](CN(C)C(=O)Nc2ccc(F)cc2)[C@H](C)CN([C@H](C)CO)C(=O)c2cc(NS(=O)(=O)c3ccccc3)ccc2O1, C[C@@H]1CN([C@@H](C)CO)S(=O)(=O)c2ccc(/C=C/c3ccccc3)cc2O[C@H]1CN(C)C(=O)Nc1cc(F)ccc1F, CC1C2CCC3C4CC=C5CC(N(C)C)CCC5(C)C4CCC32CN1C (centres undefined)
